Data on 57 compounds can be found in PMC4336329 (PLoS ONE, 2015).

In all, about 310,000 compounds went through this assay and about 2,200 (0.71%) showed an effect of 50% or more. The effect is printed as a negative number. This is one part of the list.

human ether-à-go-go-related gene (hERG) potassium channel, sequence (Q12809 whole entry, looked up): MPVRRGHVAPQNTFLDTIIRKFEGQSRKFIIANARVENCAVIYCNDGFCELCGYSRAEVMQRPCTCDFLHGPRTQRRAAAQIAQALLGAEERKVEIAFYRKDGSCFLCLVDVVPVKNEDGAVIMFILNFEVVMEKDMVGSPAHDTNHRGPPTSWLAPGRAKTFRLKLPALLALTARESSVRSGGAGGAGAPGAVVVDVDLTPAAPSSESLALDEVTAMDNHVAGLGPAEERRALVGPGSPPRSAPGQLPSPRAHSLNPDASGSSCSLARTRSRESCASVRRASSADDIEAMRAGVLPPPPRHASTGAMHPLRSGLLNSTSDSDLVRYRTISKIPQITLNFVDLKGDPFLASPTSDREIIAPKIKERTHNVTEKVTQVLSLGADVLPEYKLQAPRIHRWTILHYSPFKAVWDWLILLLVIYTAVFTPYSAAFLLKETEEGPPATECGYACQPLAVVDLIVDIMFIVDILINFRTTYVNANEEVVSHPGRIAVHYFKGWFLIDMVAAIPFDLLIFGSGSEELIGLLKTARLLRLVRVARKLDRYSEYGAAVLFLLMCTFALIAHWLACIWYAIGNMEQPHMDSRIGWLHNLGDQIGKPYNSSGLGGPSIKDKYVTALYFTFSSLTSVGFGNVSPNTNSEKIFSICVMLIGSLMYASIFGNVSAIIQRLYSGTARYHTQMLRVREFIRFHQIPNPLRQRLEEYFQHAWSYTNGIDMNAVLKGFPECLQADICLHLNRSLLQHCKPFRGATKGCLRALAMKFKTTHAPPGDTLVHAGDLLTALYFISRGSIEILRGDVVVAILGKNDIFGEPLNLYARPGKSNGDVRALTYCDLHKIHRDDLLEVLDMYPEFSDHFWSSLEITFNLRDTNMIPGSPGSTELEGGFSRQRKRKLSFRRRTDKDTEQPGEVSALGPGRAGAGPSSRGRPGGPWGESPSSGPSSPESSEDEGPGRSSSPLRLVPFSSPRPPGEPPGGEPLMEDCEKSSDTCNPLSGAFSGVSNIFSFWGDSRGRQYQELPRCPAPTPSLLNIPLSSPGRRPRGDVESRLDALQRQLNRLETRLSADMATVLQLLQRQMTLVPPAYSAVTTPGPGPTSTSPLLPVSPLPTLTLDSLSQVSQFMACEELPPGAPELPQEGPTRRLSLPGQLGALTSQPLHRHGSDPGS

This test has as its target human ether-à-go-go-related gene (hERG) potassium channel (human, UniProt Q12809). The test can be described thus: primary screen, population patch clamp on CHO cells stably expressing hERG.
Consider `N=C1c2ccccc2CN1NC(=O)c1ccccc1`, for which the “hERG current change (%, negative = inhibition) at 1uM” value was 11.3%.
The result for `COc1ccc(CCNC(=O)c2noc(C)c2[N+](=O)[O-])cc1OC` reads 11.5%; that for `COc1ccc(NC(=O)CN(c2ccccc2F)S(=O)(=O)c2ccc(C)cc2)cc1`, 16.1%; that for `COc1ccc(Cn2c(-c3ccccc3C)nc3c(c(=O)c4ccccc4n3C)c2=O)cc1`, 9.74%.
For `CC(C)=CCN1CCN(Cc2ccc(C#CC(C)(C)O)cc2)CC1CCO` (stereo not drawn) the value was 12.7%; for `O=S(=O)(Nc1cccc(-c2cn3c(n2)SCC3)c1)c1cccs1`, -8.99%; for `CSc1nc(-c2ccc(F)cc2)cc(=O)[nH]1`, 7.35%.
For `COC(=O)C1SCC2C(=O)N(Cc3cccc(C)c3)CC(=O)N21` (stereo not drawn) the value was 10.5%.
Take `COc1ccc(-n2nc(C(=O)NCC(=O)Nc3ccccn3)c3ccccc3c2=O)cc1`: the “hERG current change (%, negative = inhibition) at 1uM” value came to 12.1%.
With `CC(=O)c1ccc(NC(=S)N2CCN(C(=S)Nc3ccc(C(C)=O)cc3)C(C)C2)cc1` (stereo not drawn), the “hERG current change (%, negative = inhibition) at 1uM” value amounted to 5.52%.
Take `CC(=O)OCCc1c2ccccc2c(CCCN(C)C)c2ccccc12`: the “hERG current change (%, negative = inhibition) at 1uM” value was 12.4%.
For `O=C(NNC(=O)C1CCN(Cc2cccc(F)c2)CC1)c1cccs1` the value was 13.3%; for `Cc1cc(C)nc(NC(=O)CCC2CCCC2)c1`, 6.2%; for `O=C(CN1C(=O)c2ccccc2S1(=O)=O)N1CCN(c2ccccc2)CC1`, 9.73%.
The result for `CC1CCN(c2ccc(NC(=O)c3cccnc3Cl)cc2)CC1` reads 13.1%; that for `CCOc1ccc(C(C)=O)cc1CN1C(=O)C(=O)N(CC)C1=O`, 11.8%.
Consider `O=C(CNS(=O)(=O)Cc1ccccc1)NCc1ccccc1`, for which the “hERG current change (%, negative = inhibition) at 1uM” value was determined as 10.4%.
Take `CCOC(=O)C1CCN(C(=O)CCCOc2ccccc2)CC1`: the “hERG current change (%, negative = inhibition) at 1uM” value was 9.98%.
For `CCN1CCN(CCCNC(=O)CCC(=O)N2CCOc3ccccc32)CC1` the value was -4.42%.
For `Cc1ccc(C(=O)CSc2n[nH]c(-c3ccco3)n2)cc1C` the value was 11.6%; for `CCOc1ccc(CCNC(=O)Cn2c(=O)oc3ccccc32)cc1OCC`, -1.8%; for `Fc1ccccc1NC(=S)Nn1cnnc1`, 14.3%.
For `Clc1ccc(-c2nc3ccccn3c2CN2CCOCC2)cc1`, the “hERG current change (%, negative = inhibition) at 1uM” value is listed as 4.44%.
For `CCCN(c1ccc(C(C)C)cc1)S(=O)(=O)c1c(C)[nH]c(=O)[nH]c1=O` the value was -4.42%; for `O=C(CC1C(=O)NCCN1Cc1ccc(F)cc1Cl)NC1CCCCCCC1` (stereo not drawn), 1.63%; for `COc1ccccc1Oc1ccc(N/C=C/C(=O)c2ccc(C)o2)cc1`, 10.6%.
On to `O=C(Nc1nc2cc3c(cc2s1)OCO3)C1CCCCC1`, for which the “hERG current change (%, negative = inhibition) at 1uM” value was found to be 11.3%.
Turning to `CCO[C@@H]1OC(C(=O)NCc2nc3ccccc3[nH]2)=C[C@H](c2cn(C(C)=O)c3ccccc23)[C@H]1CCCO`, the “hERG current change (%, negative = inhibition) at 1uM” value came to 7.13%.
Regarding `CC(C(=O)OCC(=O)c1ccc(F)cc1)N1C(=O)C2C3C=CC(C3)C2C1=O` (stereo not drawn), the “hERG current change (%, negative = inhibition) at 1uM” value stood at 6.84%.
The result for `CCc1ccc(OCCCN=C(C)c2c(O)n(C)c(=O)n(C)c2=O)cc1` reads -6.69%; that for `COc1ccc(N(CC(=O)Nc2cccc(N(C)S(C)(=O)=O)c2)S(C)(=O)=O)cc1OC`, 11.5%.
With `CCOC(=O)C1CCN(C(=O)CN(c2ccc(Cl)c(C(F)(F)F)c2)S(C)(=O)=O)CC1`, the “hERG current change (%, negative = inhibition) at 1uM” value is -2.83%.
In the case of `CCOc1ccccc1NC(=O)CN1CCC(NC(=O)c2ccccc2C)CC1`, the “hERG current change (%, negative = inhibition) at 1uM” value was -19%.
For `CN(C)CCCN(C(=O)COc1ccccc1)c1nc2c(F)cccc2s1.Cl` the value was -55.8%; for `Oc1ccc(-c2csc(Nc3ccccn3)n2)cc1O`, 10.9%.
`CN(C(=O)c1cc2sccc2n1C)C1CCCCC1`: the “hERG current change (%, negative = inhibition) at 1uM” value is reported as 3.38%.
For the compound `N#Cc1cc2ccc(N3CCOCC3)cc2cc1C#N`, the “hERG current change (%, negative = inhibition) at 1uM” value stood at 1.41%.
The result for `COc1ccc(CCNC(=O)C2CCCN(S(=O)(=O)c3cc(C)ccc3OC)C2)cc1OC` (stereo not drawn) reads 4.69%; that for `CC(=O)Nc1ccc(NC(=O)CSc2nnc(-c3ccco3)o2)cc1`, 12.9%.
For `CCOC(=O)c1ccccc1NS(=O)(=O)c1ccc(OC)cc1`, the “hERG current change (%, negative = inhibition) at 1uM” value was 6.33%.
For `O=C(NCC1CCCO1)c1cc(-c2ccccc2)nc2ccc(Br)cc12` (stereo not drawn) the value was 4.16%.
The result for `Cc1cc(C)n(-c2ccc(C(=O)OCn3nnc4ccccc4c3=O)cc2)n1` reads 6.23%; that for `O=C(/C=C/Nc1ccc(Br)cc1F)c1ccccc1`, -1.69%.
For the compound `CCCCCCCCOC(=O)C(NC(=O)CCC(=O)Nc1ccc(S(N)(=O)=O)cc1)C(O)c1ccccc1` (stereo not drawn), the “hERG current change (%, negative = inhibition) at 1uM” value is 16.8%.
The result for `Cc1ccccc1NC(=O)NCC1CCCO1` (stereo not drawn) reads 17.4%; that for `Cc1ccc(S(=O)(=O)N2CCCCC2)cc1NC(=O)c1ccc2ccccc2n1`, 21.9%; that for `N=C1C(c2nc(-c3ccc(Cl)cc3)cs2)=C(O)CN1NC(=O)c1ccc(O)cc1`, 7.9%.
For `Cc1nc2ccc(NC(=O)Cc3cccc(F)c3)cc2s1` the value was 7.15%; for `CCCOc1ccc(NC(=O)C2CC(=O)N(C(C)C)C2)cc1` (stereo not drawn), 9.23%.
For `Nn1c(SCc2ccccc2F)nnc1-c1ccncc1` the value was 9.1%; for `COc1ccc(C(C)NC(=O)c2ccc(Cl)cc2)cc1OC` (stereo not drawn), 10.6%; for `COc1ccc(N2CCN(S(=O)(=O)CCNC(=O)COc3ccccc3)CC2)cc1`, 3.77%.
Consider `CC(C)(CO)NC(=O)C(c1ccccc1)c1ccccc1`, for which the “hERG current change (%, negative = inhibition) at 1uM” value was found to be 12.8%.
For `CCOc1ccc(-c2nnc(-c3ccccc3)o2)cc1` the value was 12.9%; for `Cc1cccc2cc(CN(CCN3CCOCC3)C(=O)Nc3ccccc3F)c(=O)[nH]c12`, 13.9%.
Consider `Cc1ccc(CN2CCC(CNC(=O)C3CCCN(c4ncnc5c4nc4n5CCCCC4)C3)CC2)cc1` (stereo not drawn), for which the “hERG current change (%, negative = inhibition) at 1uM” value is -2.59%.
On to `CCOc1cccc(C2C(C(=O)c3ccco3)=C(O)C(=O)N2c2nnc(C)s2)c1` (stereo not drawn), for which the “hERG current change (%, negative = inhibition) at 1uM” value is reported as 3.54%.
